# Source: PubChem BioAssay AID1345083 (National Center for Advancing Translational Sciences (NCATS), 2018)
# In all, about 94,000 compounds went through this assay and about 6,200 (6.6%) were called active. The shares of active, inactive and inconclusive entries below differ from those in the screen. The call rests on the fitted dose curve; in most records, active means well fitted inhibition curve with a large enough effect; inconclusive means small, poorly fitted or top-dose-only effect; inactive means flat fitted curve, though single readings scatter. Potencies beside an inconclusive call are fits to weak or partial responses and may not hold up.
# Assay: Cytotoxic Profiling in HEK 293 Cell Line of Diverse Libraries Using Quantitative High-Throughput Screening; further: nearly all actives have a fitted effect of over 60% in size
# Details: HEK 293 viability, ATP luminescence (CellTiter-Glo), 48-72 h; series mostly up to 115 µM
# Procedure, shortened: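 HEK 293 cells at 250 cells/well were exposed to compounds by pintool transfer for 48 or 72 hr at 37 degree Celsius, 5% CO2. Viability was read as ATP-coupled luminescence with CellTiter-Glo after 10 min at room temperature.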
# Potency means the concentration at half of the fitted maximal effect; tags describe the fitted curve by direction and shape.
row,Structure (SMILES),Potency
1,Cc1cc(C)n(CC(=O)N2CCC3(CC2)CC(CN2CCOCC2)N(C)C3)n1 (stereo not given),inactive
2,CCc1nc2c(c(-c3ccc(Cl)cc3)n1)CN(C(=O)c1ccc(F)cc1)CC2,"inconclusive: 39.8 µM [inhibitor, partial curve]"
3,CNc1nccc(N2CCC(CC(=O)N3CCN(C(C)=O)CC3)CC2)n1,"inconclusive: 28.2 µM [inhibitor, partial curve, poor fit]"
4,COCCN1CC2(CCC1=O)CCN(c1nc(C(C)C)ccc1C#N)CC2,"inconclusive: 50.1 µM [inhibitor, partial curve, poor fit]"
5,Cc1ccc(OCc2nc(C3CCCCN3C(=O)CCc3ccccc3)no2)cc1 (stereo not given),"inconclusive: 100 µM [inhibitor, single point]"
6,CCOc1ccccc1C(=O)N1CCCN(c2cc(-c3ccc(F)cc3)[nH]n2)CC1,"inconclusive: 44.7 µM [inhibitor, partial curve, poor fit]"
7,CC(C)CCNC1(Cc2cc(-c3ccc(F)cc3)on2)COC1,"inconclusive: 79.4 µM [inhibitor, partial curve, poor fit]"
8,Cc1ccc(C2Cn3nnc(C(=O)N4CCC(C(=O)Nc5cccc(Cl)c5)CC4)c3CO2)cc1 (stereo not given),active: 39.8 µM
9,CCOc1ccccc1C1NC(=O)N(CC(=O)Nc2cccc(Cl)c2)C2=C1C(=O)OC2 (stereo not given),active: 35.5 µM
10,COc1ccccc1-c1cn2c(n1)CO[C@@H](CNC1CCCC1)C2,"inconclusive: 100 µM [inhibitor, partial curve]"
11,O=C(NC1CCN(c2cnn(CC3CC3)c(=O)c2)CC1)c1ccc2c(c1)OCO2,inactive
12,COc1ccc(CN2CC[C@@H](CO)N(C)c3nc(C)ccc3C2)cc1,"inconclusive: 126 µM [inhibitor, partial curve, poor fit]"
13,O=C(NCC1CC1)c1ccc2c(c1)OCCN(c1ccccc1)C2,active: 11.2 µM
14,O=C(CNC(=O)c1cccc(-c2ccc(C(F)(F)F)cc2)c1)NCCc1ccccc1,"inconclusive: 39.8 µM [inhibitor, full curve, poor fit]"
15,Cc1ccc(-c2ccccc2CN2CCN([S+](=O)([O-])c3cccs3)CC2)cc1Cl,"inconclusive: 28.2 µM [inhibitor, full curve]"
16,COc1ccccc1C(CC(=O)NCCc1ccccc1)c1c[nH]c2ccccc12 (stereo not given),"inconclusive: 50.1 µM [inhibitor, partial curve, poor fit]"
17,CN(Cc1cccc(N2CCN([S+](=O)([O-])c3cccc4ccccc34)CC2)c1F)[S+](C)(=O)[O-],"inconclusive: 12.6 µM [inhibitor, full curve, poor fit]"
18,Cc1ccsc1CN1CC(Oc2ccccc2C(=O)NC2CC2)C1,"inconclusive: 89.1 µM [inhibitor, partial curve, poor fit]"
19,COc1ccc(CC(=O)Nc2ccc([C@H]3OCC(=O)N(Cc4cccnc4)[C@@H]3CO)cc2)cc1,inactive
20,CC1=NOC2(CCN(Cc3ccncc3)CC2)C1,inactive

row,Structure (SMILES),Potency
1,COc1cccc(CN2Cc3nc(-c4ccc(F)cc4)ccc3OCC2=O)c1,"inconclusive: 100 µM [inhibitor, partial curve, poor fit]"
2,COCCn1cnnc1C(C)Nc1nc(C(C)C)nc2c1cnn2C (stereo not given),inactive
3,COc1ccc(C(=O)NCCc2noc(-c3ccncc3)n2)cc1,inactive
4,COC1CCN(c2ccc(C(=O)NCCCn3ccnc3C(C)C)cn2)CC1,"inconclusive: 70.8 µM [inhibitor, partial curve]"
5,O=C(Cn1cccn1)N1CC(c2noc(C3CCCN3CC3CC3)n2)C1 (stereo not given),inactive
6,O=C(NCc1ccco1)C1c2ccccc2C(=O)N(C2CCCCC2)C12CCCCC2 (stereo not given),"inconclusive: 44.7 µM [inhibitor, partial curve, poor fit]"
7,COc1ccc(C(=O)NC2CCN(c3cc(C(F)(F)F)ncn3)CC2)cc1,inactive
8,Cc1cc(Cl)ccc1S(=O)(=O)N1CCCC(Cn2cnc3cccnc32)C1 (stereo not given),"inconclusive: 50.1 µM [inhibitor, partial curve, poor fit]"
9,CC(C)c1ccc(N2C(=O)N[C@@H]3CCN(C(=O)CC4(CC(=O)O)CCCC4)[C@@H]3C2=O)cc1,inactive
10,Cc1nn(-c2ccccc2)c2c1C(C(C)C)N(C1CCCN(C(=O)Cc3ccccn3)C1)C2=O (stereo not given),"inconclusive: 50.1 µM [inhibitor, partial curve, poor fit]"
11,Cc1cccc(NC(=O)Cn2c(-c3cccc(Cl)c3)nc(C)c(CCO)c2=O)c1C,"inconclusive: 79.4 µM [inhibitor, partial curve]"
12,COc1ccc(Nc2ccnc(N3CCC(NC(=O)c4ccc(F)cc4)CC3)n2)cc1,"inconclusive: 44.7 µM [inhibitor, partial curve, poor fit]"
13,Cc1ccc(-c2cc(N3CCCN(C(=O)c4cccn4C)CC3)n[nH]2)cc1C,"inconclusive: 50.1 µM [inhibitor, partial curve, poor fit]"
14,O=C(Nc1ccc(I)cc1)c1cc(-c2ccc[nH]2)n[nH]1,"inconclusive: 28.2 µM [inhibitor, full curve]"
15,c1ccc([C@@H]2C[C@@H]3C[C@H](N4CCNCC4)C[C@@H]3CO2)cc1,"inconclusive: 79.4 µM [inhibitor, partial curve, poor fit]"
16,Cc1cc(F)ccc1NC(=O)C1CN(S(C)(=O)=O)CC12CCCCC2 (stereo not given),"inconclusive: 100 µM [inhibitor, single point]"
17,O=C(NC1CC1)[C@@H]1C[C@H](Oc2cccnc2)CN1C(=O)CCc1ccccc1,inactive
18,CCOc1ccccc1NC(=O)N1CCCC(c2noc(COc3ccccc3)n2)C1 (stereo not given),"inconclusive: 50.1 µM [inhibitor, partial curve, poor fit]"
19,COc1ccc(-c2cc(N3CCCN(C(=O)Cc4c(F)cccc4Cl)CC3)n[nH]2)cc1,"inconclusive: 50.1 µM [inhibitor, partial curve, poor fit]"
20,COc1cccc(-c2ccnc3nc(-c4cccs4)nn23)c1,"inconclusive: 50.1 µM [inhibitor, partial curve, poor fit]"
